According to PubChem BioAssay AID488969 (Vanderbilt High Throughput Screening Facility, 2010):
Over roughly 110,000 compounds, “z-score” has its median near -0.1; the highest 2% begin near 2. The list shows a part of the results. Activity calls are given as the source filed them.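 Rule for the calls: active = z-score in the third read window above 3 or below -3; inactive = the rest.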

target: Metabotropic glutamate receptor 8 (Rattus norvegicus) (UniProt P70579); test: rat mGluR8 modulators via GIRK flux, primary screen, cell-based, thallium flux, HTS (AID 488969); settings: HEK293 rat mGluR8, GIRK (G protein-gated inwardly rectifying potassium channel) thallium flux, FluoZin2; at 10 µM; stronger effect = higher value; submaximal glutamate (EC20) added with thallium
Sequence of UniProt P70579 (P70579 whole entry, looked up): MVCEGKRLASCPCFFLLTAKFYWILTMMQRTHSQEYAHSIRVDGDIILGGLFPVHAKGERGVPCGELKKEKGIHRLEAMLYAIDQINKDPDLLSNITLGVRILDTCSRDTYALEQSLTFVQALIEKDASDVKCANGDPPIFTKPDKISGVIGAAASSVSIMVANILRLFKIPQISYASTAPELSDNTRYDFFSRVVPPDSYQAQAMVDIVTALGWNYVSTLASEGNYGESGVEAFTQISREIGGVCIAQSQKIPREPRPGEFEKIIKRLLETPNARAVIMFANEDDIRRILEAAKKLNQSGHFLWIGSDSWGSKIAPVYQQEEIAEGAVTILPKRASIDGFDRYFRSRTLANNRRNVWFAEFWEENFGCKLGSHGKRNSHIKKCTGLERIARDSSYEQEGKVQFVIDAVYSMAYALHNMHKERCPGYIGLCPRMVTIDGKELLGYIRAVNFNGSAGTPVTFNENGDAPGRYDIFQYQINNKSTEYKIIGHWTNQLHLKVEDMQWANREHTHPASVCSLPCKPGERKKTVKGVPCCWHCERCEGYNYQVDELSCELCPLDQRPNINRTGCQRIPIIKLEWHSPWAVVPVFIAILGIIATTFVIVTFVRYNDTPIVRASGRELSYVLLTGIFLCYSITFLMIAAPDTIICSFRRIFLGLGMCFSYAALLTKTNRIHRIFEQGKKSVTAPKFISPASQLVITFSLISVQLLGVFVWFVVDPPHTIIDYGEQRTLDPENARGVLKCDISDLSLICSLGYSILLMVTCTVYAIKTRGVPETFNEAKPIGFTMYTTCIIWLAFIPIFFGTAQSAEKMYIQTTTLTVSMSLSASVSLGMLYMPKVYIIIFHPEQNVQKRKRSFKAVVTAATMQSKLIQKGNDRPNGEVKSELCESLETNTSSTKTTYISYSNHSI

SMILES | z-score
Clc1ccc(SCc2nc3ccccc3[nH]2)cc1 | -0.0715
Cn1ncc(Br)c1C(=O)Nc1c(F)c(F)cc(F)c1F | -0.0493
CN(N)c1nc(-c2ccccc2)nnc1C(F)(F)F | -0.198
O=C(COC(=O)C1CCC(=O)N1)Nc1ccc(Cl)cc1Cl (configuration not stated) | 0.123
CC(=O)N/C(=C/c1ccc2c(c1)OCO2)C(=O)NCCCO | 0.178
CCOC(=O)c1nnn(-c2nonc2N)c1-c1ccc(OC)cc1 | -0.5
Cc1occc1-c1nnc(SCC(=O)c2ccc(F)cc2)n1Cc1ccco1 | -0.301
COc1ccc(OC)c(C(=O)COC(=O)C2CC3CCCC(C2)C3=O)c1 (configuration not stated) | 1.3
Cc1ccc(CSc2nnc(-c3ccccc3N)c(=O)[nH]2)cc1 | 0.394
Cc1ccc(-c2nn(CCC(=O)O)cc2CCC(=O)O)cc1 | -0.00395
Cc1ccc2c(c1)nnn2C1CCN(C(=O)C23CC4CC(CC(C4)C2)C3)CC1 | 0.295
COc1ccc2c(=O)c(-c3nc(C)cs3)coc2c1 | 0.0604
COC(=O)C1=C(C)N(c2ccc(Cl)cc2)/C(=C/c2cccs2)C1=O | 0.492
CCOCCc1nnc(NC(=O)c2cc(OC)c(OC)c(OC)c2)s1 | -0.0593
Cc1onc(-c2c(Cl)cccc2Cl)c1C(=O)N/N=C(\N)COc1ccc(Cl)cc1 | 0.0141
CCOC(=O)CNC(=O)Cn1cnc2sc(C)c(S(=O)(=O)N3CCC(C)CC3)c2c1=O | -0.342
Cc1ccc(C(=O)NCC(=O)N2CCN(c3ncccn3)CC2)s1 | -0.199
O=C(c1cccc(F)c1F)N1CCCC1 | 0.669
CCOC(=O)c1ccccc1N/C=C1\CCCC1=O | -0.626
COc1ccc(-n2c(SCCC(=O)O)nnc2-c2ccncc2)cc1 | 0.658
CCCCNC(=O)OC1CCS(=O)(=O)C1 (configuration not stated) | 0.0952
CCC(C)(C)NC(=O)C(c1ccccc1F)N(C(=O)c1ccn[nH]1)c1ccccc1 (configuration not stated) | 0.203
CN(C)c1ccc(NC(=O)CN2C(=O)CC(c3ccccc3)=Nc3ccccc32)cc1 | 0.236
COc1ccc(CCNC(=O)c2cccnc2)cc1 | 0.502

SMILES | z-score
CN(C(=O)C1CCOC1)c1nnc(-c2cccnc2)s1 (configuration not stated) | -0.116
N#Cc1nc(COc2ccccc2Cl)oc1NCc1ccc(F)cc1 | -0.0948
N/C(=N\OC(=O)c1ccccc1Cl)c1ccccn1 | -0.325
COc1ccc(S(=O)(=O)Nc2ccc3c(c2)OCO3)cc1C | -0.308
CCCCNC(=O)C1CCN(Cc2ccccn2)CC1 | -0.151
Cc1cc2ncn(C(=O)N3CCOCC3)c2cc1C | 0.0803
COc1ccc2nc(NC(=O)C3CCN(S(=O)(=O)c4cccs4)CC3)sc2c1 | -0.128
CC1CCN(C(=O)CSc2nnc(Cc3cc(=O)[nH]c(=O)[nH]3)n2-c2ccc(Cl)cc2)CC1 | -0.349
Cc1ccc(S(=O)(=O)CCc2nnc(NC(=O)c3ccccn3)s2)cc1 | 0.0225
Clc1ccc(Nc2nc(-c3cccs3)cs2)nc1 | -0.433
Cn1[nH]c(=O)c(Cl)c(Cl)c1=O | -0.305
COc1ccc(C(=O)Nc2ccccn2)cc1 | -0.119
CC1=NN(C(=O)c2ccc(Cn3cc([N+](=O)[O-])cn3)cc2)C(O)(C(F)(F)F)C1 (configuration not stated) | 0.0166
O=C(Nc1cccnc1)c1cc(-c2ccc3c(c2)OCO3)on1 | 0.364
COCCCNC(=S)N(Cc1cccnc1)Cc1ccc(OC)c(OC)c1 | -1.16
Cc1[nH]c2c(C)cccc2c1CCNS(=O)(=O)c1cccc([N+](=O)[O-])c1 | -0.0132
Cc1cccc(OCC(=O)O/N=C(\N)Cc2ccc(Cl)cc2)c1 | 0.608
O=C(NC1CC1)C1CCCN1S(=O)(=O)c1ccc2ccccc2c1 (configuration not stated) | -0.112
CCOCCCNC(=O)c1ccc(CS(=O)(=O)Cc2cccc(C)c2)o1 | 0.789
COc1ccc(NC(=O)c2cc(-c3ccccc3Cl)no2)cc1 | -0.224
CCOc1cc(/C=N/NC(=O)COc2cccc(C)c2)ccc1OC(=O)c1cccs1 | -0.0875
Cc1ccc(C(=O)c2ccccc2C(=O)O)s1 | -0.296
COc1ccccc1NC(=O)C(=O)NNC(=O)c1ccco1 | 2.81
Cc1ccc(CCNC(=O)C2CC(c3ccccc3[N+](=O)[O-])=NO2)cc1 (configuration not stated) | -0.174

SMILES | z-score
O=C(NC(NC1CCS(=O)(=O)C1)C(Cl)(Cl)Cl)c1ccc(Br)cc1 (configuration not stated) | -0.137
O=[N+]([O-])c1cccc2ccc(/C=C/c3ccc(F)cc3)nc12 | -0.262
O=c1[nH]c2c(s1)C(c1ccco1)C1C3CCC(C3)C1S2 (configuration not stated) | -0.0669
Cc1cccc(NC(=O)/C=C/c2cccs2)n1 | -0.165
CC(=O)C1=C(C)NC(SCC(=O)c2ccc(Cl)c(Cl)c2)=C(C#N)C1c1ccco1 (configuration not stated) | -0.139
Cc1nc2ccccc2c2c1C(=O)N(CCC1=CCCCC1)C2=O | 0.00608
CCOc1ccc(S(=O)(=O)N2CCN(C(=O)c3cc4c(s3)CCCC4)CC2)cc1 | -0.492
Cn1cc([N+](=O)[O-])c(C(=O)Nc2ccc(C(=O)N3CCCCC3)cc2)n1 | -0.328
C=CCN1C(=O)[C@]2(c3ccccc31)C1CCCC=C1C(C#N)=C(N)C2(C#N)C#N (some centres not stated) | 0.209
Cc1cc(C)c2c(c1)-c1c(ssc1=S)C(C)(C)N2C(=O)CN1C(=O)c2ccccc2C1=O | 0.383
COc1ccc(NC(=O)CSc2nc(N)c3cc4c(nc3n2)CCCC4)c(OC)c1 | -0.625
CC(C)N(C)CCOC(=O)c1ccccc1Cl | -0.145
Cc1cc(NC(=O)c2ccc3c(c2)C(=O)N(C)C3=O)no1 | -0.25
COc1ccccc1C(CC(N)=O)c1ccco1 (configuration not stated) | 0.108
CC1CCN(CCn2c(=S)[nH]c3ncccc3c2=O)CC1 | active: 4.47
CCCC(C)C(=O)Nc1nc(C)c(-c2csc(Nc3cc(Cl)ccc3C)n2)s1 (configuration not stated) | -0.232
CC(NC(=O)c1ccc2c(c1)OCO2)C(c1cccs1)N1CCOCC1 (configuration not stated) | -0.0844
O=C(Nc1cccnc1)c1ccccc1O | -0.251
O=C(CCN1CCN(C/C=C/c2ccccc2)CC1)Nc1ccc(Cl)cc1 | 0.239
COc1ccc(OCC(=O)N2CCN(C(=O)c3cccc(F)c3)CC2)cc1 | -0.205
Cc1cc(Br)c2c(c1)=C(c1sc(N3CCCCCC3)nc1O)C(=O)N=2 | 0.07
Cc1cc[n+](-c2[nH]c(=O)sc2/C=N/NC([S-])=Nc2ccccc2)cc1 | 0.536
CC(=O)Nc1c(C)nn(-c2ccc(C)c(C)c2)c1C | -0.119
c1ccc(C2CC(c3ccccc3)n3c(nc4ccccc43)N2)cc1 (configuration not stated) | -2.1
